{"source": "paper PMC4336329", "about": "(PLoS ONE, 2015)", "note": "The whole screen tested about 310,000 compounds, of which about 14,000 (4.5%) showed an effect of 50% or more. Effects have a minus sign here. The list shows a part of the results.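 Further: peak tail current of the secondary pulse compared with the same well before compound.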"}
{"biological_target": "human ether-à-go-go-related gene (hERG) potassium channel (human, UniProt Q12809)", "sequence (Q12809 whole entry, looked up)": "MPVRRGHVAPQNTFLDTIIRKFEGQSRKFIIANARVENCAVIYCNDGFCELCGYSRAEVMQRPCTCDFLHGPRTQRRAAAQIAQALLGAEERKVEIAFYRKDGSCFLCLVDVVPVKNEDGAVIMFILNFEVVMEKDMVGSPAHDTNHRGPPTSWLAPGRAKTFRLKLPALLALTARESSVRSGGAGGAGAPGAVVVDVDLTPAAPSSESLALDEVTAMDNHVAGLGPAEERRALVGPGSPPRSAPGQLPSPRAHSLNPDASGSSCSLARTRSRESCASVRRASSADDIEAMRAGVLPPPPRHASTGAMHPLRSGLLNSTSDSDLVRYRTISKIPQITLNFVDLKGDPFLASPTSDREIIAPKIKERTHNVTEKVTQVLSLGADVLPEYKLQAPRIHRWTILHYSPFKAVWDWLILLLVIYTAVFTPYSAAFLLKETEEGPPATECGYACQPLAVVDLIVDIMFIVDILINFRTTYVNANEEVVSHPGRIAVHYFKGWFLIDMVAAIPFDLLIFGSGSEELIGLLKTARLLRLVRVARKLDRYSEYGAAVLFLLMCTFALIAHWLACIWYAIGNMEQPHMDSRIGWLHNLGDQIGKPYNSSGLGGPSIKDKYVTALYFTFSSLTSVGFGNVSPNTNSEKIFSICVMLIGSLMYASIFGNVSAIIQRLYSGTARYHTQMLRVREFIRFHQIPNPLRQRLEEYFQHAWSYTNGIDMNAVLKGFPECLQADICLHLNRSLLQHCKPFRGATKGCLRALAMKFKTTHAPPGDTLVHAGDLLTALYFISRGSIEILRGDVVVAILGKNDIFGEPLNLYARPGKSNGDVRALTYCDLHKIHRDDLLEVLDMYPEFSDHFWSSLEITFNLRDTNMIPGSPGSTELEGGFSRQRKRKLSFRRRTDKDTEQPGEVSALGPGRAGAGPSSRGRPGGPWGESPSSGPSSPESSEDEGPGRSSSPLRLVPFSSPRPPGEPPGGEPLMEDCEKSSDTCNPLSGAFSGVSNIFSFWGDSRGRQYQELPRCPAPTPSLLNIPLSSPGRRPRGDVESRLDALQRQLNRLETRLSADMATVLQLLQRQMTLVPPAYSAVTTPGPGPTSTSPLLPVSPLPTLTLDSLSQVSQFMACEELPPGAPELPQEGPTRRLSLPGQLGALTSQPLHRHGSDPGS", "assay": "primary screen, population patch clamp on CHO cells stably expressing hERG", "units": {"hERG current change (%, negative = inhibition) at 10uM": "%"}}
{"smiles": "COc1ccc(-c2cc(C(=O)N3CCN(C(c4ccccc4)c4ccccc4)CC3)no2)cc1OC", "hERG current change (%, negative = inhibition) at 10uM": -8.12}
{"smiles": "CCOC(=O)c1[nH]c(C)c(C(=O)OCC(=O)N(Cc2ccccc2)C(C)C)c1C", "hERG current change (%, negative = inhibition) at 10uM": -15.8}
{"smiles": "Cc1cc(S(=O)(=O)NCCC2=CCCCC2)ccc1Br", "hERG current change (%, negative = inhibition) at 10uM": -12.4}
{"smiles": "COc1ccc(CCNC(=O)CSc2nnc(CNC(=O)c3cccs3)o2)cc1OC", "hERG current change (%, negative = inhibition) at 10uM": -1.27}
{"smiles": "CC(Sc1nnc(-c2ccco2)o1)C(=O)NCCC1=CCCCC1", "note": "(stereo not drawn)", "hERG current change (%, negative = inhibition) at 10uM": -11.8}
{"smiles": "Cc1noc(C)c1COC(=O)CCCc1nc2ccccc2s1", "hERG current change (%, negative = inhibition) at 10uM": -25.5}
{"smiles": "COCCn1c(C)cc(C(=O)COC(=O)/C=C/c2cccc(OC)c2)c1C", "hERG current change (%, negative = inhibition) at 10uM": -18.9}
{"smiles": "Cc1oc2c(C)c3oc(=O)c(CC(=O)N[C@@H](CC(C)C)C(=O)N[C@@H](Cc4ccccc4)C(=O)O)c(C)c3cc2c1C", "hERG current change (%, negative = inhibition) at 10uM": 14.1}
{"smiles": "CCN1C/C(=N\\S(=O)(=O)/N=C2\\CN(CC)C(=O)N2CC)N(CC)C1=O", "hERG current change (%, negative = inhibition) at 10uM": 5.87}
{"smiles": "O=C(Nc1nccs1)c1ccc(CSc2ccccc2)o1", "hERG current change (%, negative = inhibition) at 10uM": -42.4}
{"smiles": "O=S1(=O)CCOC[C@H](CC2CCCCC2)N1Cc1ccc(F)cc1", "hERG current change (%, negative = inhibition) at 10uM": -8.7}
{"smiles": "O=S(=O)(c1ccc(-c2ccon2)s1)N1CCN(CCN2CCOCC2)CC1", "hERG current change (%, negative = inhibition) at 10uM": 17.4}
{"smiles": "O=C(Cn1cnc2ccccc2c1=O)c1c[nH]c2ccccc12", "hERG current change (%, negative = inhibition) at 10uM": 2.67}
{"smiles": "COc1ccc(C2c3c(oc4ccccc4c3=O)C(=O)N2c2ccccn2)cc1", "note": "(stereo not drawn)", "hERG current change (%, negative = inhibition) at 10uM": 1.76}
{"smiles": "CC(NC(=O)c1c(O)c2ccccc2n(C)c1=O)c1ccccc1", "note": "(stereo not drawn)", "hERG current change (%, negative = inhibition) at 10uM": 1.28}
{"smiles": "CC[C@H](C)[C@H]1O[C@]2(CC[C@@H]1C)C[C@@H]1C[C@@H](CC=C(C)[C@@H](O[C@H]3C[C@H](OC)[C@@H](O[C@H]4C[C@H](OC)[C@@H](O)[C@H](C)O4)[C@H](C)O3)[C@@H](C)C=CC=C3CO[C@@H]4[C@H](O)C(C)=C[C@@H](C(=O)O1)[C@]34O)O2", "hERG current change (%, negative = inhibition) at 10uM": 4.4}
{"smiles": "O=c1[nH]c(O)c(/C=C2/C=CC(c3cc(Cl)ccc3Cl)=N2)c(=O)[nH]1", "hERG current change (%, negative = inhibition) at 10uM": 0.304}
{"smiles": "O=C1NC(Cc2ccccc2)C(=O)Nc2ccc(Br)cc21", "note": "(stereo not drawn)", "hERG current change (%, negative = inhibition) at 10uM": 2.26}
{"smiles": "O=C(COC(=O)c1cccc2ccccc12)NCC1CCCO1", "note": "(stereo not drawn)", "hERG current change (%, negative = inhibition) at 10uM": 4.32}
{"smiles": "Cc1ccc(SCC(=O)Nc2cccc(C(=O)NC(C)(C)C)c2)cc1", "hERG current change (%, negative = inhibition) at 10uM": 4.17}
{"smiles": "CCC(/C=N/Nc1ccc(S(=O)(=O)N2CCCC2)cc1[N+](=O)[O-])CC", "hERG current change (%, negative = inhibition) at 10uM": 1.08}
